Data: the supplement of paper PMC11417369
The other results are listed elsewhere or left out.

Each sequence was assayed on PF3D7_0420300 AP2 domain 1 (GST-tagged) (assay: gcPBM binding intensity (ln(normalized median fluorescence intensity)); higher = stronger DNA binding).
How it was run: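 Each value is the highest Masliner-normalised natural-log median intensity across replicate spots of either orientation of a probe. The probes were primer-extended double-stranded 36-bp intergenic genomic sequences on an Agilent 4 × 180k array, alongside negative controls, exposed for 1 h to GST-tagged P. falciparum DNA-binding domains expressed in E. coli. Bound protein was picked up with Alexa488 anti-GST antibody and scanned at 488 nm.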

Row | Sequence | gcPBM binding intensity (ln)
1 | ACTATAAATATATAAATATATATATATATATATATA [GTGCAC_negctrl_site65] | 8.92
2 | ACTCTTAAAATGTATTGTACATAATTTTTACAAGGG [XGTACX_site6611] | 9.02
3 | AGGTAGTTCTGTATCACACACATATATATATATATA [CACACA_site2214] | 9.71
4 | TTTTTTTTTTTTACCTGTACATGTCAGCAAACTTTT [XGTACX_site1171] | 9.15
5 | GGAGAATAGTGGAAAACACACACGTTTGAGATATGG [CACACA_site1168] | 9.47
6 | CAAAAACGGAAGTGGTGTACCGATATTATATAAACA [XGTACX_site4962] | 9.51
7 | AACATTATAAGACACACACACACATATATATATATA [CACACA_site8259] | 10.1
8 | ATTATTAAAAAGATGTAAATAAATGAATATATGCTT [CACACA_negctrl_site539] | 9.27
9 | ATATAGTATAATAAAAGTACATTTTGATTTTTTCTC [XGTACX_site1797] | 9.11
10 | TATTAAGAATTTACATGTACTTGTTAAATAAGAAAA [XGTACX_site4466] | 9
11 | TTCTATATATTTTAATGTACATATATGATTATTCTT [XGTACX_site8294] | 9.36
12 | GTCGCATTTTATACAAGTACACATGAATTATACAAC [XGTACX_site2200] | 9.5
13 | TAAATAATATCTATCACACACGCATATATACATATA [CACACA_site2622] | 9.49
14 | ATTTATAATCAGGGTTGTACACTTATAGAATTTTTA [XGTACX_site4175] | 9.16
15 | CATAAGAAAATAAAAACATGCACATAAGAAATATAC [TGCATGCA_site842] | 10
16 | AATCTTCATACCAACACATGCACAAAAGAAATAAAA [TGCATGCA_site563] | 9.47
17 | ATATAAATATATGGAAGTACACAAAAAAATTAAAAA [XGTACX_site8624] | 9.54
18 | TATATTTATACATATTGTACATTTTATACTTTTACA [XGTACX_site3884] | 9.33
19 | CTTATGTGCATACCTACACACTTACAGATATATATA [CACACA_site5622] | 9.46
20 | TTCAAATATTTTATTTGTACATAAAAAAGAAAGTTA [XGTACX_site8287] | 8.64
21 | TAGGAAGAATTACTGTGTACTAAAATATTAAAAAGT [XGTACX_site4909] | 9.38
22 | ATAAATGAAAAAAAGCGTACATATAAAAAAATATAT [XGTACX_site5063] | 9.6

Row | Sequence | gcPBM binding intensity (ln)
23 | ACTTACCCATTTATTACACACATAAAGGAAAATTTT [CACACA_site4873] | 9.7
24 | TGTAAATAATATAATAGTACGCATATTTTTATTGAA [XGTACX_site284] | 9.14
25 | TGTTTATGTATCAATTGTACAAAAAAAAAAAAAAAA [XGTACX_site1590] | 8.75
26 | TTCAAAAAAATGTATACACACATAAGTATAATATAA [CACACA_site3758] | 9.41
27 | GATTTTTTTTTTTTTTCACACACTAATAATATTATC [CACACA_site464] | 9.65
28 | AGTGTAGGTATATAAACACACATACAGATATATAAT [CACACA_site4900] | 9.62
29 | GTATGTATGTATGTATGTACTTATGTAGTCTTAGTT [XGTACX_site1710] | 9.3
30 | TAAAAAATAAAATGGACACACACGTTCAAATTTAGA [CACACA_site2083] | 9.71
31 | TATTCAGGTCCAATGGTGCAATATATTTTTGTAATA [GTGCAC_site9607] | 9.26
32 | ATATATATATATATATGTACACATATATGTGTTTGT [XGTACX_site62] | 9.35
33 | TTAATAAACCTTAGATGTACAGTTATATATAAAATA [XGTACX_site6681] | 9.14
34 | TGAACTCACGAGCACACACACACATATATATATATA [CACACA_site8248] | 9.94
35 | ATATATATTTTTTAATGTACTTATATTTTTATAATA [XGTACX_site2103] | 9.2
36 | ATACAATAAAGGTGTACACATATATGATGCAAGATG [CACACA_site5897] | 9.65
37 | AGCAATTGTGTTTTCACACATAAATATATTCCTCAC [CACACA_site5021] | 9.34
38 | AATTAAACTCACACCACACACAAAAAAAAAAAAAAA [CACACA_site693] | 9.52
39 | GGTCATATTTTTTGCACACAAAAAAAAATATAAAAT [CACACA_site3381] | 9.43
40 | ACCTAAGAACTATTTACACACATATACAAAATATAT [CACACA_site2459] | 9.72
41 | ATTGTTCTATGATTTGTACACACTTTTTTTTAAAAT [CACACA_site2825] | 9.74
42 | AATAAAAAACTACAATATACAAAATTATTAAATCAA [GTGCAC_negctrl_site703] | 9.4
43 | CATATAAAAATATGCACACACAGGAATACAAACATA [CACACA_site684] | 10.2
44 | AAACGTACATAATACACACACATGTATCCATATAAA [CACACA_site5173] | 9.78
